Results taken from PubChem BioAssay AID652106 (National Center for Advancing Translational Sciences (NCATS), 2013).
The campaign covered roughly 370,000 compounds. About 500 (0.14%) were called active. This list was built around the results that the source calls inconclusive (neither active nor inactive); the mix of calls is not that of the screen. The call rests on the fitted dose curve; in most records, active means well fitted activation curve with a large enough effect; inconclusive means small, poorly fitted or top-dose-only effect; inactive means no such curve, though single readings can be large or run the other way. Potencies of inconclusive entries are left out as doubtful fits.

Assay: qHTS of alpha-syn Inhibitors; further: nearly all actives have a fitted effect of over 65% in size
Conditions: Yeast expressing alpha-synuclein, BacTiter-Glo, 24 h; Potency: growth rescue unless noted; series mostly up to 46.1 µM
Summary of the method: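 Screening used galactose-induced yeast with toxic alpha-synuclein levels, exposed to compound for 24 hr at 30 deg C. Cell growth, read with BacTiter-Glo luminescence, gave the measured signal.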
Potency means the concentration at half of the fitted maximal effect; tags describe the fitted curve by direction and shape.

For `COc1ccc(NC(=O)CN(C)C(=O)CC2CCCC2)cc1`, which Potency is on record?
Its Potency is “inactive”.

With `CCc1nc2c(OCc3c(C)noc3C)cccn2c1N(C=O)Cc1ccc(OC)cc1` as the molecule, how does the Potency read?
Its Potency is inconclusive [activator, single point].

For `CC(C)(C)NC(=O)NC(=O)COC(=O)Cc1ccc(Cl)cc1Cl`, which Potency is on record?
The Potency was inconclusive [activator, single point].

For `COc1ccc(-c2csc(C(O)(c3ccccc3)C(F)(F)F)n2)cn1` (stereo not drawn), which Potency is on record?
The Potency was “inactive”.

With `O=C(Nc1nnc(-c2ccc(F)cc2)o1)c1cccc([N+](=O)[O-])c1` as the molecule, how does the Potency read?
The Potency was inconclusive [activator, partial curve, poor fit].

With `CCC(c1nnnn1-c1ccc2c(c1)OCCO2)N1CCN(C)CC1` (stereo not drawn) as the molecule, how does the Potency read?
The Potency was inconclusive [activator, single point].

With `CCCCC[C@H](C)N1C[C@H](COCc2ccccc2)Oc2cc(N3CC[C@H](O)C3)ccc2S1(=O)=O` as the molecule, how does the Potency read?
Its Potency is inconclusive [activator, single point].

For `CC1(C)[C@@H](O)CC[C@]2(C)C3C(O)C=C4[C@H]5C[C@@](C)(CO)CC[C@]5(C)CC[C@]4(C)[C@]3(C)CC[C@@H]12` (stereo partly drawn), which Potency is on record?
Its Potency is “inactive”.

Which Potency does the source give for `COC(=O)c1ccccc1-c1ccc(/C=N/NC(N)=O)o1` here?
The Potency was “inactive”.

Which Potency does the source give for `Cc1ccccc1/C=C/C(=O)c1ccc([N+](=O)[O-])o1` here?
Its Potency is “inactive”.

Which Potency does the source give for `CCOC(=O)N1CCC(NC(=O)C2=CCN(S(=O)(=O)c3ccc(OC)cc3)CC2)CC1` here?
Its Potency is inconclusive [activator, single point].

For `Cc1ccc2ccc(S(=O)(=O)n3nc(C)cc3C)cc2c1`, which Potency is on record?
The Potency was inconclusive [activator, partial curve].

For `O=C(c1cccnc1)N(Cc1ccccc1)C(=O)c1cccnc1`, which Potency is on record?
The Potency was inconclusive [activator, single point].

Which Potency does the source give for `CCSc1oc(-c2ccco2)nc1S(=O)(=O)c1ccc(C)cc1` here?
Its Potency is inconclusive [activator, single point].

With `CCCN1C(=O)S/C(=C\c2ccc(N3CCOCC3)o2)C1=O` as the molecule, how does the Potency read?
Its Potency is inconclusive [activator, partial curve].

For `O=C(NN=Cc1cccc(O)c1O)c1ccccc1`, which Potency is on record?
The Potency was inconclusive [activator, partial curve].

Which Potency does the source give for `COc1cc(CN2C(=O)C(C)ON=C2c2cccs2)cc(OC)c1` (stereo not drawn) here?
The Potency was inconclusive [activator, single point].

With `COc1ccc(Cl)cc1NCC(=O)Nc1ccc(OC)c(S(=O)(=O)N2CCCCC2)c1` as the molecule, how does the Potency read?
The Potency was inconclusive [activator, single point].
